Test results from publication PMC9911399, “Two distinct binding modes provide the RNA-binding protein RbFox with extraordinary sequence specificity”.
Where a chain is given by its changes, count along the chain named. This is one part of the list.

T1: RBFOX1 RRM (Homo sapiens, UniProt Q9NWB1 109-208)
T1 sequence: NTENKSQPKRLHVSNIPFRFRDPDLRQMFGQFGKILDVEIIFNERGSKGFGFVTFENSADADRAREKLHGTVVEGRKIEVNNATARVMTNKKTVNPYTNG

B1: GCAAGCA (DNA:RNA)
RNA: GGGAGACCGGAAUUCAGAUUGUCCGCAAGCAUUAAAUCCCGUCGUAGCCACCA
DNA 1: CAATCTGAATTCCGGTCTCCC
DNA 2: TGGTGGCTACGACGGGATT
B2: AGCUAUC (DNA:RNA)
RNA: GGGAGACCGGAAUUCAGAUUGUCCAGCUAUCUUAAAUCCCGUCGUAGCCACCA
DNA 1: CAATCTGAATTCCGGTCTCCC
DNA 2: TGGTGGCTACGACGGGATT
B3: GUAAACA (DNA:RNA)
RNA: B1 RNA with C26U, G29A
DNA 1: CAATCTGAATTCCGGTCTCCC
DNA 2: TGGTGGCTACGACGGGATT
B4: UUAUAGC (DNA:RNA)
RNA: B2 RNA with A25U, G26U, C27A, U30G
DNA 1: CAATCTGAATTCCGGTCTCCC
DNA 2: TGGTGGCTACGACGGGATT
B5: UGGAGUC (DNA:RNA)
RNA: B2 RNA with A25U, C27G, U28A, A29G
DNA 1: CAATCTGAATTCCGGTCTCCC
DNA 2: TGGTGGCTACGACGGGATT
B6: CAUAAAU (DNA:RNA)
RNA: B2 RNA with A25C, G26A, C27U, U28A, U30A, C31U
DNA 1: CAATCTGAATTCCGGTCTCCC
DNA 2: TGGTGGCTACGACGGGATT
B7: CAGUUAG (DNA:RNA)
RNA: B2 RNA with A25C, G26A, C27G, A29U, U30A, C31G
DNA 1: CAATCTGAATTCCGGTCTCCC
DNA 2: TGGTGGCTACGACGGGATT
B8: UGAGGUU (DNA:RNA)
RNA: B2 RNA with A25U, C27A, U28G, A29G, C31U
DNA 1: CAATCTGAATTCCGGTCTCCC
DNA 2: TGGTGGCTACGACGGGATT
B9: GAAGCGA (DNA:RNA)
RNA: B1 RNA with C26A, A28G, G29C, C30G
DNA 1: CAATCTGAATTCCGGTCTCCC
DNA 2: TGGTGGCTACGACGGGATT
B10: CUGUUAA (DNA:RNA)
RNA: B2 RNA with A25C, G26U, C27G, A29U, U30A, C31A
DNA 1: CAATCTGAATTCCGGTCTCCC
DNA 2: TGGTGGCTACGACGGGATT
B11: CCAUCUC (DNA:RNA)
RNA: B2 RNA with A25C, G26C, C27A, A29C
DNA 1: CAATCTGAATTCCGGTCTCCC
DNA 2: TGGTGGCTACGACGGGATT
B12: AGUCAAU (DNA:RNA)
RNA: B2 RNA with C27U, U28C, U30A, C31U
DNA 1: CAATCTGAATTCCGGTCTCCC
DNA 2: TGGTGGCTACGACGGGATT
B13: CGGGCCU (DNA:RNA)
RNA: B2 RNA with A25C, C27G, U28G, A29C, U30C, C31U
DNA 1: CAATCTGAATTCCGGTCTCCC
DNA 2: TGGTGGCTACGACGGGATT
B14: UUUCUAU (DNA:RNA)
RNA: GGGAGACCGGAAUUCAGAUUGUCCUUUCUAUUUAAAUCCCGUCGUAGCCACCA
DNA 1: CAATCTGAATTCCGGTCTCCC
DNA 2: TGGTGGCTACGACGGGATT
B15: CAGCCGC (DNA:RNA)
RNA: B2 RNA with A25C, G26A, C27G, U28C, A29C, U30G
DNA 1: CAATCTGAATTCCGGTCTCCC
DNA 2: TGGTGGCTACGACGGGATT
B16: AGUUGCC (DNA:RNA)
RNA: B2 RNA with C27U, A29G, U30C
DNA 1: CAATCTGAATTCCGGTCTCCC
DNA 2: TGGTGGCTACGACGGGATT
B17: CUAUUCU (DNA:RNA)
RNA: B14 RNA with U25C, U27A, C28U, A30C
DNA 1: CAATCTGAATTCCGGTCTCCC
DNA 2: TGGTGGCTACGACGGGATT
B18: GUUCCUA (DNA:RNA)
RNA: B14 RNA with U25G, U29C, A30U, U31A
DNA 1: CAATCTGAATTCCGGTCTCCC
DNA 2: TGGTGGCTACGACGGGATT
B19: AACGCCA (DNA:RNA)
RNA: B2 RNA with G26A, U28G, A29C, U30C, C31A
DNA 1: CAATCTGAATTCCGGTCTCCC
DNA 2: TGGTGGCTACGACGGGATT
B20: AAUCGGU (DNA:RNA)
RNA: B14 RNA with U25A, U26A, U29G, A30G
DNA 1: CAATCTGAATTCCGGTCTCCC
DNA 2: TGGTGGCTACGACGGGATT

Target: T1, RBFOX1 RRM
Test: EMSA; HiTS-Eq, 1 nM pool, 10 min; buffer printed only for the single-RNA assays: 10 mM Tris pH 7.5, 150 mM NaCl, 3.4 mM EDTA, 0.001% NP-40, 30 C
Conditions: tags: His6 N-terminal (pET28a); label: 5' 32P
How it was run: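 Purified RbFox RRM (wild type or mutant) was equilibrated for 10 min in 50 µL with 1 nM of a 5′-radiolabelled pool of RNA with 7 randomized nucleotides, its flanks annealed to DNA oligonucleotides, across increasing protein concentrations. Free RNA was separated by 8% native PAGE, excised, reverse-transcribed, PCR-barcoded and sequenced on an Illumina HiSeq 2500. Relative association constants came from read-count changes of each variant against the control reaction, normalised to the cognate motif.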

| Binder | binding signal |
| --- | --- |
| B1 | 0.0187 KA relative to UGCAUGU |
| B2 | 0.00768 KA relative to UGCAUGU |
| B3 | 0.00248 KA relative to UGCAUGU |
| B4 | 0.00825 KA relative to UGCAUGU |
| B5 | 0.0349 KA relative to UGCAUGU |
| B6 | 0.000845 KA relative to UGCAUGU |
| B7 | 0.0113 KA relative to UGCAUGU |
| B8 | 0.0165 KA relative to UGCAUGU |
| B9 | 0.0104 KA relative to UGCAUGU |
| B10 | 0.00893 KA relative to UGCAUGU |
| B11 | 0.00486 KA relative to UGCAUGU |
| B12 | 0.00434 KA relative to UGCAUGU |
| B13 | 0.0242 KA relative to UGCAUGU |
| B14 | 0.00863 KA relative to UGCAUGU |
| B15 | 0.00702 KA relative to UGCAUGU |
| B16 | 0.011 KA relative to UGCAUGU |
| B17 | 0.00535 KA relative to UGCAUGU |
| B18 | 0.00878 KA relative to UGCAUGU |
| B19 | 0.00148 KA relative to UGCAUGU |
| B20 | 0.00643 KA relative to UGCAUGU |
